Test results published in PMC4336329 (PLoS ONE, 2015).
Screen size: about 310,000 compounds; about 14,000 (4.5%) showed an effect of 50% or more. The effect is printed as a negative number. The list shows a part of the results.

What follows are compounds tested against human ether-à-go-go-related gene (hERG) potassium channel (human, UniProt Q12809) (assay: primary screen, population patch clamp on CHO cells stably expressing hERG).
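Further: peak tail current of the secondary pulse compared with the same well before compound.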

human ether-à-go-go-related gene (hERG) potassium channel, sequence (Q12809 whole entry, looked up): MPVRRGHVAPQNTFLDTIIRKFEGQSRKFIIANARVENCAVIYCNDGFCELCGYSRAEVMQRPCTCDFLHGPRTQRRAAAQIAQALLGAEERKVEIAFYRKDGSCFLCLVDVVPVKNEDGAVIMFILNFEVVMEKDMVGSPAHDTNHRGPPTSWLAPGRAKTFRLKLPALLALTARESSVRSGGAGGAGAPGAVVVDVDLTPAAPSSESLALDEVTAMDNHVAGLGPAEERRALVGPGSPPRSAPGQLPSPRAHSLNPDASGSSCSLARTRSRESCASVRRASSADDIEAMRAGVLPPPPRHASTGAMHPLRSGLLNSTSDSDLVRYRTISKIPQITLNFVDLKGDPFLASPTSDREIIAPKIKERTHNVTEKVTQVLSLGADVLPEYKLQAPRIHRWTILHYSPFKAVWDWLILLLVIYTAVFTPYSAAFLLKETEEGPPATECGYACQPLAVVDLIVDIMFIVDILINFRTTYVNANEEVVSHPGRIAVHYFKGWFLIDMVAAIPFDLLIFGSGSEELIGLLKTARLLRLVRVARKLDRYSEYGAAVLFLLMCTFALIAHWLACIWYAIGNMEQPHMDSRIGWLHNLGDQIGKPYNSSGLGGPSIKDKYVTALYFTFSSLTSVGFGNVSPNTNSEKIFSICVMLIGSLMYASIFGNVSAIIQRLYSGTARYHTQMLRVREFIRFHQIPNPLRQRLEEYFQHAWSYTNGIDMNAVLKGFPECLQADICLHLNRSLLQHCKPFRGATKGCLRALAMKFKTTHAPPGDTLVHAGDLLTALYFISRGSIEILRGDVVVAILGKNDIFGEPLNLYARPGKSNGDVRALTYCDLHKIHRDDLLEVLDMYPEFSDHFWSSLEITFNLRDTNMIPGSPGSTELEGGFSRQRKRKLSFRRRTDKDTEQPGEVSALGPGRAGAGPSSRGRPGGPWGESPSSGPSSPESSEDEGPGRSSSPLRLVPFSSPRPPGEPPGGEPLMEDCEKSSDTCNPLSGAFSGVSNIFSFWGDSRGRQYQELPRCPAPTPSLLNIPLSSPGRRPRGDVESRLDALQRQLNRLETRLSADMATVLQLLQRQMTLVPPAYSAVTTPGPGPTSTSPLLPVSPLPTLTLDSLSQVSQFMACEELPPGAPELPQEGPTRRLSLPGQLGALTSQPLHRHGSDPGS

SMILES | hERG current change (%, negative = inhibition) at 10uM
CCOC(=O)CC(=O)CSc1nc2cc(C)ccc2cc1C | 18.8%
ClCc1ncc(-c2ccc(Cl)cc2)o1 | 33.5%
CC(=O)Nc1ccc(NC(=O)CSc2ncc(C(=O)Nc3ccccc3)c(=O)n2C)cc1 | 0.205%
CCCC(=O)Nc1c(-c2cccs2)c(=O)c2ccccc2n1C | -13.6%
Cc1ccc(CN(C(=O)c2cc(=O)c3cc(C)cc(C)c3o2)C2CCS(=O)(=O)C2)cc1 (stereo not drawn) | -32.1%
Cc1ccc(-n2nc3c(c2NC(=O)c2ccc4c(c2)OCO4)CSC3)cc1 | 5.99%
CCOC(=O)c1cc(-c2ccc(C#N)cc2)nc2c1c(C)nn2CCC#N | -37.7%
CC(C)CCN1CCN=C1Nc1ccccc1 | 12.1%
Cc1cc(C)n(CC(=O)NN)n1 | 42.8%
Oc1ccc(C(=C(Cl)Cl)c2ccc(O)cc2)cc1 | 12.1%
COC(=O)Nc1ccccc1C(=O)N1CCCCC1 | 4.62%
O=C(O)CCC(=O)N1N=C(c2ccco2)CC1c1ccco1 (stereo not drawn) | -78.1%
COc1ccc(NC(=O)CSc2nnc(Cc3ccccc3)c(=O)n2N)c(OC)c1 | -18.1%
COc1cccc(NC(=O)CSc2nnc(CNC(=O)c3ccccc3F)o2)c1 | -28.5%
CCS(=O)(=O)NCc1cn2c(C)csc2n1 | -7.77%
CC(C)(C)OC(=O)NCCOC(=O)c1[nH]cnc1C(=O)NCc1ccccc1 | -18.3%
CC1CCN(Cc2nc(-c3ccccc3)no2)CC1.Cl | -0.43%
Cn1nccc1C(=O)N1CCC2(CC1)OCCO2 | 11.5%
Cc1ccc(NC(=O)NCCCN2CCCC2=O)c(C)c1 | -1.12%
OC(CNCc1ccccc1)(c1ccc(F)cc1)c1ccc(F)cc1 | -38.1%
COc1ccc(/C=N/NC(=O)c2cccnc2)cc1 | 10.8%
COc1cccc2cc(C(C)OC(=O)Nc3ccc(C)cc3)oc12 (stereo not drawn) | 8.64%
CC(=O)N1CCN(c2ccc(NC(=O)c3ccc([N+](=O)[O-])cc3Cl)cc2)CC1 | -8.49%

SMILES | hERG current change (%, negative = inhibition) at 10uM
COCCCn1c(=O)c2sccc2n2c(CCCC(=O)NCc3cccc(OC)c3)nnc12 | -6.59%
c1ccc(-c2cn(C[C@H]3CC[C@@H]([C@@H]4CC[C@H](Cn5cc(-c6ccccn6)nn5)O4)O3)nn2)nc1 | -6.73%
Cc1ccc2nc(NC(=O)CSc3nc4c(c(=O)n3C)SC(C)C4)sc2c1 (stereo not drawn) | -15%
CCOC(=O)c1nnn2c1nc(Nc1cccc(C(F)(F)F)c1)c1ccccc12 | 12.3%
CCOC(=O)c1ccc(Nc2ncnc3nc[nH]c23)cc1 | 5.27%
Cc1nn(-c2ccccc2)c(Cl)c1/C=C1\C(=O)N(C)C(=S)N1C | -6.34%
COc1cccc(NC(=O)CN2CCSc3ccccc32)c1 | -3.38%
Cc1cc(C(=O)OCC(=O)Nc2ccc(F)cc2F)c(C)o1 | -2.18%
O=C(C1=C(O)C(=O)N(c2ncccn2)C1c1cccc(Cl)c1)c1ccco1 (stereo not drawn) | 10.4%
C/C(=N/NC(=O)c1ccc(Br)o1)c1cccs1 | 2.61%
CN(C)c1ccc(C2Nc3ccccc3C(=O)N2CCN2CCNC2=O)cc1 (stereo not drawn) | -0.887%
O=C(NCc1ccc2c(c1)OCO2)c1cccc(Cl)c1 | -0.96%
COc1ccc(/C=N/NC(=O)C(C)n2nnc3ccccc32)cc1OC (stereo not drawn) | 2.4%
CCOc1ccc(C(C(=O)NCC2CCCO2)N(C(=O)c2snc(C(N)=O)c2N)c2ccc3c(c2)OCCO3)cc1 (stereo not drawn) | 16.7%
COc1cc(C(CCN2CCOCC2)c2c(OC)cc(OC)c3c(C)cc(=O)oc23)cc(OC)c1OC (stereo not drawn) | -79.3%
O=C(Nc1ccccc1)N1CCC2(CC1)OCCO2 | 4.1%
C=CCNC(=S)NNC(=O)c1cccnc1 | 12.9%
O=C(CNC1CCCCC1)Nc1ccc([N+](=O)[O-])cc1C(=O)Nc1ccccc1F | -33.6%
C/C(=N\O)c1ccc2c(c1)OCCO2 | 14.3%
O=C(CCSc1ccccc1)Nc1ccccc1C(=O)N1CCCC1 | 9.14%
Cc1c(NC(=O)CSc2ccccc2C(=O)Nc2cccnc2)c(=O)n(-c2ccccc2)n1C | 4.72%
Cc1ccc(C(=O)N/N=C/c2cn(Cc3ccccc3)c3ccccc23)cn1 | 3.28%
COc1ccc(NC(=O)CSc2nc3ccccc3c(=O)n2C)cc1 | 4.53%

SMILES | hERG current change (%, negative = inhibition) at 10uM
O=C(O)/C=C\C(=O)Nc1ccc(F)c(F)c1F | 2.16%
COc1ccc(N2CCN(S(=O)(=O)c3cn(C)c(=O)n(C)c3=O)CC2)cc1 | -4.07%
CCC(C)NC(=O)CC(NS(=O)(=O)c1ccc(C)cc1)c1ccc(OC)cc1 (stereo not drawn) | -11.9%
ClCc1nc2ccccc2n1Cc1ccccc1 | 10.6%
CCc1ccc(CNn2cnnc2SCC(=O)NC(C)(C)C)cc1 | -18.2%
Cc1ccc(C(=O)OCC(=O)N(C)C2CCS(=O)(=O)C2)cc1S(=O)(=O)N1CCCCC1 (stereo not drawn) | -16.5%
CCC1(C)Cc2ccccc2-c2nc[nH]c(=O)c21 (stereo not drawn) | 11.3%
COC(=O)[C@@H](Cc1c[nH]c2ccccc12)NC(=O)c1ccc2c(c1)OCO2 | 5.01%
Cc1ccc(NC(=O)C(C)SCC(=O)Nc2ccc(F)cc2)cc1S(=O)(=O)N1CCOCC1 (stereo not drawn) | -7.66%
S=C(Nc1cccc(Cl)c1)NC1CCCCC1 | 7.58%
O=C(c1ccc(Cl)cc1)N1N=C(c2ccccn2)CC1(O)C(F)(F)F (stereo not drawn) | -13.6%
CCOC(=O)C1CCN(C(=O)c2ccccc2NS(=O)(=O)c2ccccc2)CC1 | -15.8%
COc1cc(NC(=O)CCc2nnc3ccc(N4CCC5(CC4)OCCO5)nn23)cc(OC)c1 | 9.18%
CC(C)C(=O)NC(CC(=O)O)c1ccccc1 (stereo not drawn) | -1.68%
Cc1ccc(CNC(=O)CN(c2ccc(C)cc2)S(=O)(=O)c2c(C)n[nH]c2C)cc1 | -26.1%
O=C(NNC(=O)C12CC3CC(CC(Cl)(C3)C1)C2)c1csc(N2CCOCC2)n1 | -1.63%
C=C[C@]1(C)C=C2CCC3[C@](C)(CCC[C@@]3(C)C(=O)O)C2CC1 (stereo partly drawn) | 13.3%
COc1ccc2c(c1)nc(N)n2Cc1ccccc1 | -23.1%
CN(CCc1ccccc1)C1CCCN(C(=O)Cn2cccn2)C1 (stereo not drawn) | -1.49%
COc1ccc(C)cc1NC(=O)c1c(C)nn(Cc2ccccc2)c1Cl | -0.515%
Cc1ccn2c(=O)nc(SCC(=O)NCCc3ccccc3)nc2c1 | -18.8%
COc1ccc(NC(=O)c2c(C(F)(F)F)nn(C)c2SCc2ccccc2Cl)cc1 | 5.73%
CC(C)Nc1nc2cccnc2s1 | 16.1%

SMILES | hERG current change (%, negative = inhibition) at 10uM
CCOC(=O)C(=NC(C)CC)NNc1ccc(Br)cc1 (stereo not drawn) | 19.1%
CCOC(=O)N1CCN(Cc2c(O)ccc3ccccc23)CC1 | -1.36%
C=CCNC(=O)c1cc2nc(C3CC3)cc(C(F)F)n2n1 | 2.36%
CC(C)(C)CC(=O)Nc1nn[nH]n1 | 24.3%
COc1ccc(NC(=O)CSc2nnc(Cc3cccn3C)n2CCc2ccccc2)c(OC)c1 | -2.48%
CCCOc1ccc(C2C(C(=O)c3ccco3)=C(O)C(=O)N2CCCn2ccnc2)cc1 (stereo not drawn) | -6.76%
O=C(Nc1nnc(COc2ccccc2)s1)c1ccco1 | 10.6%
COc1ccccc1-n1c(=O)c(C#N)c(-c2ccc([N+](=O)[O-])cc2)c2cc(C(=O)c3ccccc3O)cnc21 | 4.68%
CN(Cc1ccc(F)cc1)C(=O)c1ccc2c(c1)NC(=O)CS2 | -44.4%
CC1=C(C#N)CCC(=O)N1Cc1c(F)cccc1Cl | 6.17%
Fc1ccc(-c2nc3c(-c4ccc(F)cc4)cnn3cc2CCN2CCOCC2)cc1 | -14.2%
S=C(NCc1ccccn1)Nc1ccccc1 | 16.3%
C(=N\c1c(-c2ccccc2)nc2n1CCS2)/c1ccccc1 | 11.4%
CCc1nnc(NC(=O)c2cc(-c3ccncc3)nc3ccccc23)s1 | 10%
CCCc1n(CC)c2ccccc2[n+]1CC(O)COC1CCCCC1.[I-] (stereo not drawn) | -13.6%
O=C1CS/C(=C/C(=O)c2cccc(Cl)c2)N1 | -2.13%
CC(=O)O.Cc1nc(NCCc2ccc(F)cc2)c(C#N)c(C)c1[N+](=O)[O-] | -28.1%
CC(C)C(=O)N(Cc1ccccc1)c1ccccn1 | 7.57%
CC(NC(=O)C1CCN(S(=O)(=O)c2cc([N+](=O)[O-])ccc2Cl)CC1)c1ccccc1 (stereo not drawn) | 11.5%
Cc1cc(Cl)ccc1OCC(=O)NCCOc1nc(N2CCCCC2)nc(N2CCOCC2)n1 | -40%
COCCn1c(=O)[nH]c2cc(C(=O)NC3CCCCCC3)ccc2c1=O | -15.3%
